The results in this text go back to publication PMC4336329 (PLoS ONE, 2015).

The campaign covered roughly 310,000 compounds. About 2,200 (0.71%) showed an effect of 50% or more. Effects have a minus sign here. The list shows a part of the results.

Sequence of human ether-à-go-go-related gene (hERG) potassium channel (Q12809 whole entry, looked up): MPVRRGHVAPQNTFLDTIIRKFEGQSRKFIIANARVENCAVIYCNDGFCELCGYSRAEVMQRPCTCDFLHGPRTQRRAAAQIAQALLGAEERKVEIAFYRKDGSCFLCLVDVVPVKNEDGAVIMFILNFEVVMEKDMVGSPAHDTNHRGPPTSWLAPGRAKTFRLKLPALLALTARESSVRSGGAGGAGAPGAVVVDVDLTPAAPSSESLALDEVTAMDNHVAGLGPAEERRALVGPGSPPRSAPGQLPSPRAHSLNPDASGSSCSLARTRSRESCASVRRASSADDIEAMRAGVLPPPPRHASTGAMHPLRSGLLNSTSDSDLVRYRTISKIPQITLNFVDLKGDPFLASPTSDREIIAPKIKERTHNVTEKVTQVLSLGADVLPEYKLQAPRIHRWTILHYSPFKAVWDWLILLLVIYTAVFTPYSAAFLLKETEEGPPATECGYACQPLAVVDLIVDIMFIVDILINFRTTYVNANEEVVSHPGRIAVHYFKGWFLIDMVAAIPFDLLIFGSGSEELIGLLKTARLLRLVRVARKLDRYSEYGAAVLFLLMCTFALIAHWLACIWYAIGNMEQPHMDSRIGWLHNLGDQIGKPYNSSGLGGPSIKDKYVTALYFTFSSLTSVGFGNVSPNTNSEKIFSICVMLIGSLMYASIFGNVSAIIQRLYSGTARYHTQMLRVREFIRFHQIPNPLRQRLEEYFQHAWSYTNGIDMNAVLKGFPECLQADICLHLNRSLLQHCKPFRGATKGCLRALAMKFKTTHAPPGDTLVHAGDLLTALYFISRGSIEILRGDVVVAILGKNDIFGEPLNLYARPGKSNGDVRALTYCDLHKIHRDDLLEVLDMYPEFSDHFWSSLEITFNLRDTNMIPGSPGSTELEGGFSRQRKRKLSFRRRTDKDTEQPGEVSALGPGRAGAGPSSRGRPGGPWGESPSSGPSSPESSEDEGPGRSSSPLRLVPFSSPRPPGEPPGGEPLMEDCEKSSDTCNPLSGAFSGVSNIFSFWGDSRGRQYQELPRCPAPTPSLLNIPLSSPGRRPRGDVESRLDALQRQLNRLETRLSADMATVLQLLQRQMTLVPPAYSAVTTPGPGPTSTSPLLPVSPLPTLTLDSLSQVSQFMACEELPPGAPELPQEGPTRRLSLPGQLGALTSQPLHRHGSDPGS

This experiment addresses human ether-à-go-go-related gene (hERG) potassium channel (human, UniProt Q12809). Kind of experiment: primary screen, population patch clamp on CHO cells stably expressing hERG.
As for `CCN1CCN(CCc2nc3cc(NC(=O)COc4ccc(Cl)cc4)ccc3n2C)CC1`, the “hERG current change (%, negative = inhibition) at 1uM” value was -26.8%.
The figure for `CCOC(=O)C1(CC2CCCCO2)CCN(Cc2nc3ccccc3nc2C)CC1` (centres unmarked) is 5.83%.
With `NS(=O)(=O)c1ccc(N2CCCCCC2)c([N+](=O)[O-])c1` the figure was 11.6%; with `C=CCn1c(-c2cc(Cl)ccc2OC)n[nH]c1=S`, 14.7%.
The figure for `C/C(=N\N=C1/SC(CC(=O)O)C(=O)N1c1ccccc1)c1ccc(C)cc1` (centres unmarked) is 16.9%; for `COc1cc2c(cc1OC)C(c1cccc(F)c1)CC(=O)N2` (centres unmarked) it is 6.8%; for `CN(C)CCCN(C(=O)c1ccco1)c1nc2ccc(Cl)cc2s1.Cl` it is -14.7%.
`CC(C)(C)C(=O)OCc1nc(-c2ccc3c(c2)OCCO3)cs1`: the “hERG current change (%, negative = inhibition) at 1uM” value was 4.02%.
`O=C(O)c1cccc(-n2nc(-c3ccc(Cl)c([N+](=O)[O-])c3)c3ccccc3c2=O)c1`: the “hERG current change (%, negative = inhibition) at 1uM” value was found to be 12.7%.
For `CSc1ccc(S(=O)(=O)N2CCC(C(=O)NCCCn3ccnc3)CC2)cc1`, the “hERG current change (%, negative = inhibition) at 1uM” value is 12.8%.
Take `CC1=C(Sc2ccccn2)C(=O)NC(C)(C)C1`: the “hERG current change (%, negative = inhibition) at 1uM” value is 12%.
The figure for `COc1cc(C(=O)NCC2(N(C)C)CCCCC2)ccc1OCc1ccccc1` is -22.7%.
For `COC(=O)CSc1nc2cc3c(cc2cc1C)OCO3`, the “hERG current change (%, negative = inhibition) at 1uM” value is recorded as 14.7%.
With `CCOC(=O)c1ccc(CC(=O)c2oc3cc(O)ccc3c2C)o1` the figure was 8.61%; with `O=[N+]([O-])c1ccccc1OCCCNCc1ccccc1`, 4.87%; with `c1ccc(Nc2cccc(Nc3ccccc3)c2)cc1`, 9.66%.
The figure for `CC(C)(C)c1ccc(OCc2ccc(C(=O)N/N=C/c3ccc(O)c(O)c3)cc2)cc1` is 6.22%; for `COc1cccc(N2CCN(C(=O)c3ccc(CSc4nc5ccncc5[nH]4)cc3)CC2)c1` it is 4.18%; for `COc1ccc(C2=NN(C(=O)CSc3cn(C)c4ccccc34)C(c3ccc(OC)cc3)C2)cc1` (centres unmarked) it is 12%.
In the case of `Cc1cccc(N2CCN(Cc3ccoc3)CC2)c1C`, the “hERG current change (%, negative = inhibition) at 1uM” value was found to be 3.84%.
Turning to `O=C1CC(C2CCCO2)C(=O)N1c1cccc(Cl)c1` (centres unmarked), the “hERG current change (%, negative = inhibition) at 1uM” value is on record as 8.41%.
Take `COc1ccc(NCc2nnc(SCC(=O)NCc3ccco3)n2-c2ccccc2OC)cc1`: the “hERG current change (%, negative = inhibition) at 1uM” value is listed as 6.22%.
On to `COc1ccc2nc(SCC(N)=O)cc(C)c2c1`, for which the “hERG current change (%, negative = inhibition) at 1uM” value amounted to 9.46%.
Regarding `C#CCOn1c(-n2nc(C)cc2C)nc2ccccc2c1=O`, the “hERG current change (%, negative = inhibition) at 1uM” value was 12.8%.
With `O=CN1CCN(C(=O)c2ccccc2Cl)CC1` the figure was 19%; with `CCN(CC)S(=O)(=O)c1ccc(Cl)c(C(=O)Nc2ccc(Cl)cc2[N+](=O)[O-])c1`, 2.04%.
With `O=C(O)c1ccc(COc2ccc([N+](=O)[O-])cc2)o1` the figure was 16.6%.
The figure for `C=CCn1c(SCC(C)=O)nc2sc3c(c2c1=O)CCC3` is 7.25%; for `O=C(NCc1ccco1)c1ccc(Br)c(S(=O)(=O)N2CCCCC2)c1` it is -4.85%; for `Cc1cc(Cl)ccc1OCCCC(=O)NCCCn1ccnc1` it is -17.4%.
`O=C(O)C1CCCCC1C(=O)Nc1cccc(C(=O)N2CCCCC2)c1` (centres unmarked): the “hERG current change (%, negative = inhibition) at 1uM” value is on record as 5.17%.
For the molecule `CCOc1ccc(CCNC(=O)c2ccc3ccccc3n2)cc1OCC`, the “hERG current change (%, negative = inhibition) at 1uM” value turned out to be 10.5%.
Consider `CCOc1ccc(Br)cc1S(=O)(=O)NC1CCCC1`, for which the “hERG current change (%, negative = inhibition) at 1uM” value amounted to 4.8%.
The figure for `CCn1cc(CNC(=O)c2cc(-c3ccccc3OC)nc3ccccc23)c(C)n1` is 3.55%; for `Cc1ccc(S(=O)(=O)NC(CC(C)C)C(=O)N2CCCCCCC2)cc1` (centres unmarked) it is 10.9%.
With `CN(C)Cc1c(C(=O)N/N=C/C2CC=CCC2)nnn1-c1nonc1N` (centres unmarked) the figure was 4.67%; with `CSc1nc(N2CCN(c3ccccc3)CC2)cc(N2CCN(c3ccccc3)CC2)n1`, 17.3%.
Consider `Cc1ccnc(SCC(=O)N2CCCc3ccccc32)n1`, for which the “hERG current change (%, negative = inhibition) at 1uM” value was -1.64%.
With `CCCn1c(CN2CCN(C(=O)OCC)CC2)nc2cc([N+](=O)[O-])ccc21` the figure was -13%; with `O=C(CC1c2ccccc2Oc2ccccc21)Nc1ccccc1C(F)(F)F`, 8.71%; with `Cc1ccc(C(C)NC(=O)C23CC4CC(CC(C4)C2)C3)cc1` (centres unmarked), 10%.
With `CC(=O)c1cc(-c2ccccc2)n(CC(=O)Nc2cccc(C)c2C)c1C` the figure was 6.81%.
Turning to `Cc1ccc(-n2nnnc2SCc2nnc(-c3ccccc3Br)o2)c(C)c1`, the “hERG current change (%, negative = inhibition) at 1uM” value was 6.8%.
Consider `O=C(/C=C/c1ccc(Cl)cc1)Nc1ccc(N2CCCCC2)cc1`, for which the “hERG current change (%, negative = inhibition) at 1uM” value is on record as 5.92%.
